Reference: paper PMC12136788
This is one part of the list.

T1: UNK ZnF1-3 (human, UniProt Q9C0B0 31-174)
T1 sequence: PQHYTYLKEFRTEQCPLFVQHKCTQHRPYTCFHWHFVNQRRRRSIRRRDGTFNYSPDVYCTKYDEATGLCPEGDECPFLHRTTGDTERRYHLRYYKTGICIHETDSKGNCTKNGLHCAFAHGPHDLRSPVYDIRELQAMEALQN

B1: chr1:219384882:219384883:+_ENSG00000143353_ENST00000366928|hu_hu|FALSE|FALSE (ssRNA)
RNA: GGGAGUUCUACAGUCCGACGAUCGGUCACUCCUAGAGAUUUUAACAUUGAGUUUGUCUCUUCUGCCCAAGAAUGAAGAACUAACUCAUCUGCAGUACCAUGACACUGAAAUAAUUCAGGAAGUACACCAUUACUCUUCUGAAGCAACAGAGGAUUGAGCAUCA
B2: chr15:55677894:55677895:-_ENSG00000260916_ENST00000569205|hu_hu|FALSE|FALSE (ssRNA)
RNA: GGGAGUUCUACAGUCCGACGAUCUGAACAUUCUGGGGCGGGCUCACAGCUGUCAGUGGGGGUCACAGAAUUCAACAUUUCUAUAUCUGACCCCUCAUGACUGAUGACAGUCCAACCACAAGAUGAAUCACUGUCACUGGAAUUCAACAGAGGAUUGAGCAUCA
B3: chr5:73612201:73612202:-_ENSMUSG00000070733_ENSMUST00000101127|mus_mus|FALSE|FALSE (ssRNA)
RNA: GGGAGUUCUACAGUCCGACGAUCUCACUUAGAAAUUGAGGUUGAGGCACAGAGUUUGUAGAAAAGACACCAAAUUUGGAAAGGAUCCAUCUAGAAGCUUCUUCAACCUGGAGCAGGCACUGAAGAGGGGCACGCUGGGAAAAGCAACAGAGGAUUGAGCAUCA
B4: chr11:68312385:68312386:+_ENSG00000110075_ENST00000393800|hu_mus|FALSE|FALSE (ssRNA)
RNA: GGGAGUUCUACAGUCCGACGAUCCUUGCUGAAGAAACUGGCGAGUAGUGGGUUCAAGGGGGACUCAUUUAGGAGGAAGCUAUACAAUUUCAUUAGCAAGGACUCAUCUUCCCCCAGUCUAUCAUUCAUCUGGGAGACAUCAGACAACAGAGGAUUGAGCAUCA
B5: chr7:7679991:7679992:-_ENSG00000106399_ENST00000396682|hu_hu|hu_hu_hu_mus_False|58_68 (ssRNA)
RNA: GGGAGUUCUACAGUCCGACGAUCUGGGAUGAAUCUUUUCCAGCUUCCCCACGAAGCACACGGGCCGGUCGAUGAAUUGAGCUAGCAUGCUGGCGUUGACGCGCGCUUUGGGGAGCUGCAUUAUGUCCUCCAUGAUUCUGCCGCCAACAGAGGAUUGAGCAUCA
B6: 3985545_3993019_514_CDS_ENSMUSG00000020658_ENSMUST00000111178|mouse|control|control (ssRNA)
RNA: GGGAGUUCUACAGUCCGACGAUCCACAAACGAGUUGGUGCCAAGGAUCUGCAGGUUCGGCUUCUCCGACUCCAGCAGCUUGGCCACCAUUUUGAGGAAGCUUUCCACGAAGAGGUUGAUACUCUGGCAGUGGCAGGCCAUGAGCAACAGAGGAUUGAGCAUCA
B7: chrX:106345308:106345309:+_ENSMUSG00000031246_ENSMUST00000033598|mus_mus|FALSE|FALSE (ssRNA)
RNA: GGGAGUUCUACAGUCCGACGAUCUUCUCUCAUCCACUUCCGAUUCUCUUCAUUAGCUGCAAUAUCUUUUUCUUCAAAUCCUAUUUUGUUGGCUUCUAAGAAACAAAGCACAUCUUGCUGUUUCUUCUUAAUCGCCGUAGAGCCCAACAGAGGAUUGAGCAUCA
B8: 71582422_71582805_3288_CDS_ENSMUSG00000031398_ENSMUST00000004326|mouse|control|control (ssRNA)
RNA: GGGAGUUCUACAGUCCGACGAUCUACACGGGGUUCUUGAACUGUCAGCAGAUGGGUUCCACUCACAGUGAUGGAGGUGCUUCCAUUGAUGAUGCUCCAGGUGGGCUCAAGGUGUGUGACCGUAGGGUCCUGGGUGUAGGUAUACAACAGAGGAUUGAGCAUCA
B9: 102446194_102446703_881_CDS_ENSG00000197102_ENST00000360184|human|control|control (ssRNA)
RNA: GGGAGUUCUACAGUCCGACGAUCCACUUUUUGAAUUUCUCGGAUCCAGCGGUUAACUCCAGAUUGUAACUGAUUAAGAAAUGUUGGGUCUUCAACCUUAUCACCAAAGUCUGUAACUUUUGGCUUUUCUCCACGCUCAUAACACAACAGAGGAUUGAGCAUCA
B10: chr2:128605524:128605525:-_ENSG00000144231_ENST00000272645|hu_hu|motif|central (ssRNA)
RNA: GGGAGUUCUACAGUCCGACGAUCCAAGGCUGCUCCAAGAUUCCAUGUCACCUGGGCCUGUGAGUUAUUUGAAACAGCAACCGGACCCCACGCCAAGCUGGGCUGUUUUCUCCAAAGGAAUUCUCAACUGUCUUCAACAGAAUUCAACAGAGGAUUGAGCAUCA
B11: chr4:99962207:99962208:+_ENSG00000164024_ENST00000296411|hu_hu|FALSE|FALSE (ssRNA)
RNA: GGGAGUUCUACAGUCCGACGAUCGCCGGCAGCAACAUCCAAAACUUCUCUAGCAAGCCUACAUACAAGUCGCAUCCCUUCUAUAUCUUCAGAUGAGAGUAAUUUAAUCUGAGAAGUACCUUUAAGAGCCUGUUCAGAUUCAGACAACAGAGGAUUGAGCAUCA
B12: chr2:217001844:217001845:+_ENSG00000079246_ENST00000392132|hu_hu|hu_hu_hu_mus_False|1_38 (ssRNA)
RNA: GGGAGUUCUACAGUCCGACGAUCACCAACUUGAGGAUUAGAUCUUUUGUCAUAAGCAUAUCGGACGAUGGCGACCAUGUUUAACUCAUCCAAAGCAUGAAUCAGGGAGGAAAGGGCAACAGCUGCCGCCUCAUCAUCUCUUGCCAACAGAGGAUUGAGCAUCA
B13: chr6:114281168:114281169:-_ENSG00000196591_ENST00000368632|hu_hu|hu_hu_hu_mus_True|1_8 (ssRNA)
RNA: GGGAGUUCUACAGUCCGACGAUCUUCCAUUUUUCGGUAUAAACCAUAAUUUAGCAGCAAGUUAUGAGUCAUCCGGAUUCUAUGAGGCUUCAUGGGAUGACCCUGGCCAUAAUAAUAAUUGCCAAUAUCACAGAUUCACUAGAACAACAGAGGAUUGAGCAUCA
B14: chr17:25064881:25064882:-_ENSMUSG00000024163_ENSMUST00000117509|mus_hu|FALSE|FALSE (ssRNA)
RNA: GGGAGUUCUACAGUCCGACGAUCGUAGUGCUCCACCUGGAUUUGCAGCUCUUUCUUCUCUUGUUCCAGAGCAUCUUCAAACUCAAUGAAUUUCUCCUCCGCCUGCCUGCGCAGCGCCUUCUCACGCUCGUACUGGGUGAGCAGCAACAGAGGAUUGAGCAUCA
B15: chr11:46405157:46405158:+_ENSG00000110492_ENST00000395566|hu_hu|hu_hu_hu_mus_False|1_1 (ssRNA)
RNA: GGGAGUUCUACAGUCCGACGAUCCCCUCCCCACUUUGGGCACUUGGUGUGGGCGUGAGAGGACAGGCGUGAUUGACAGAGCUGACAGGAAGACAAAAGGCACUGGUGGGUUAUAUCUUGGGCCUGUGGGAGAGGAGGCGUGGGCAACAGAGGAUUGAGCAUCA
B16: chr15:78798593:78798594:+_ENSMUSG00000033088_ENSMUST00000109689|mus_hu|FALSE|FALSE (ssRNA)
RNA: GGGAGUUCUACAGUCCGACGAUCUCCAGGGGGAUCCUGGAAGAAGAGGGAUGGCUCAGGAGCCUGGCGUGGUGGGGAUGAGAAGGAGGGUGCAUCCCGGUGCCCAAUGCACACAGGGGUGGGGAUGUGGGGGCACUCGUGCAGCAACAGAGGAUUGAGCAUCA
B17: chr17:57737884:57737885:+_ENSG00000141367_ENST00000269122|hu_hu|FALSE|FALSE (ssRNA)
RNA: GGGAGUUCUACAGUCCGACGAUCAUUUCCCUGGGCAAAAAGAGCAUUAAAUUUCCGGGCAAAGAGUUCUUCAGCACCGGCUAAGUUAUUACGUACAGCCAUUCUCAGAGCCAAAUCAGGAUUUUGUAGAACAUUGGUGAUGUACAACAGAGGAUUGAGCAUCA
B18: chr8:104439394:104439395:+_ENSG00000164934_ENST00000297579|hu_hu|motif|central (ssRNA)
RNA: GGGAGUUCUACAGUCCGACGAUCACUGUCAAAUCCCCAGGUCAUUGAACAUAUAGGAUUAGUUCUUUGUUCAUCCCAAAUGUCGGCUUGCUGUCCACAUGUGGCAAAAACAGCUUCUUUCCAGUGAUGAUCAAUCCCAGUAUACAACAGAGGAUUGAGCAUCA
B19: 63604056_63610781_2089_CDS_ENSMUSG00000025964_ENSMUST00000114107|mouse|control|control (ssRNA)
RNA: GGGAGUUCUACAGUCCGACGAUCUGUCCCCCAGAUGUACUGGCAUUGAUUGUCCCUUGUCUUGCACUCGCCAUUGUAGCAGCGACCCUGAUUUUGAUUGCAGCUAUAGCCAUCUUGUUUAUGGAGGUUCGGUGGGCACUGGCCCAACAGAGGAUUGAGCAUCA
B20: chr10:126434673:126434674:+_ENSMUSG00000078429_ENSMUST00000105256|mus_mus|motif|central (ssRNA)
RNA: GGGAGUUCUACAGUCCGACGAUCUGACUGACAUUGAAAGCAACAGGGCUGAGAGCUCAGAGCUGCCCAGAGCACAGAGCGGUGAGGACCUCACUCAGUCCUAUAACGAGAAGCAGGAGGCAUUUGGCAAAUCAAGUAAGAGCACAACAGAGGAUUGAGCAUCA
B21: chrX:71549762:71549763:+_ENSMUSG00000019087_ENSMUST00000019231|mus_mus|mus_mus_mus_hu_False|1_78 (ssRNA)
RNA: GGGAGUUCUACAGUCCGACGAUCAAACCCGUGUACUUCUUAUUGUUAGCACAACAUUCCCCCCCAACGAUAACGACAGCCAAGCAGGACAGACAGUUAAGUAGUACUUCCACACUCCCAAACUCAGGGAGCCCUAUAGUUCAUCAACAGAGGAUUGAGCAUCA
B22: chr2:42509997:42509998:+_ENSG00000143924_ENST00000318522|hu_mus|FALSE|FALSE (ssRNA)
RNA: GGGAGUUCUACAGUCCGACGAUCUCGCUGAGUCCUCUCCUCAUAAUUAAACAGGACUACCACUGAGGCGAUAAAAUAAACUAUCUCCCCUGUGGGAAGCAGGUAUACAUUCGCUCUACAGUCCUUUCCUCGAUAACCGUAUACCAACAGAGGAUUGAGCAUCA

Biological target: T1, UNK ZnF1-3
Assay: nsRBNS (natural sequence RNA bind-n-seq); RBNS binding buffer (assumed for nsRBNS): 25 mM Tris pH 7.5, 150 mM KCl, 3 mM MgCl2, 0.01% Triton X-100, 500 ug/ml BSA, 20 U/ml SUPERase-In, 4 C; UNK is unkempt and MSI1 is Musashi-1; names of the RNAs are library labels; protein concentration not given here; high values mean tight binding

Row | Binder | binding signal
1 | B1 | 0.977 enrichment R
2 | B2 | 0.541 enrichment R
3 | B3 | 2.67 enrichment R
4 | B4 | 1.33 enrichment R
5 | B5 | 0.987 enrichment R
6 | B6 | 1.02 enrichment R
7 | B7 | 0.604 enrichment R
8 | B8 | 0.724 enrichment R
9 | B9 | 0.635 enrichment R
10 | B10 | 1.09 enrichment R
11 | B11 | 1.89 enrichment R
12 | B12 | 1.49 enrichment R
13 | B13 | 0.889 enrichment R
14 | B14 | 0.899 enrichment R
15 | B15 | 2.67 enrichment R
16 | B16 | 1.74 enrichment R
17 | B17 | 1.93 enrichment R
18 | B18 | 0.667 enrichment R
19 | B19 | 0.612 enrichment R
20 | B20 | 2 enrichment R
21 | B21 | 1.53 enrichment R
22 | B22 | 1.26 enrichment R
